# Out of some 310,000 compounds screened, about 14,000 (4.5%) showed an effect of 50% or more. The effect is printed as a negative number. Some of the results follow.
# Target: human ether-à-go-go-related gene (hERG) potassium channel (human, UniProt Q12809)
# Assay: primary screen, population patch clamp on CHO cells stably expressing hERG
# 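Note: peak tail current of the secondary pulse compared with the same well before compound.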
# Chain of human ether-à-go-go-related gene (hERG) potassium channel (Q12809 whole entry, looked up): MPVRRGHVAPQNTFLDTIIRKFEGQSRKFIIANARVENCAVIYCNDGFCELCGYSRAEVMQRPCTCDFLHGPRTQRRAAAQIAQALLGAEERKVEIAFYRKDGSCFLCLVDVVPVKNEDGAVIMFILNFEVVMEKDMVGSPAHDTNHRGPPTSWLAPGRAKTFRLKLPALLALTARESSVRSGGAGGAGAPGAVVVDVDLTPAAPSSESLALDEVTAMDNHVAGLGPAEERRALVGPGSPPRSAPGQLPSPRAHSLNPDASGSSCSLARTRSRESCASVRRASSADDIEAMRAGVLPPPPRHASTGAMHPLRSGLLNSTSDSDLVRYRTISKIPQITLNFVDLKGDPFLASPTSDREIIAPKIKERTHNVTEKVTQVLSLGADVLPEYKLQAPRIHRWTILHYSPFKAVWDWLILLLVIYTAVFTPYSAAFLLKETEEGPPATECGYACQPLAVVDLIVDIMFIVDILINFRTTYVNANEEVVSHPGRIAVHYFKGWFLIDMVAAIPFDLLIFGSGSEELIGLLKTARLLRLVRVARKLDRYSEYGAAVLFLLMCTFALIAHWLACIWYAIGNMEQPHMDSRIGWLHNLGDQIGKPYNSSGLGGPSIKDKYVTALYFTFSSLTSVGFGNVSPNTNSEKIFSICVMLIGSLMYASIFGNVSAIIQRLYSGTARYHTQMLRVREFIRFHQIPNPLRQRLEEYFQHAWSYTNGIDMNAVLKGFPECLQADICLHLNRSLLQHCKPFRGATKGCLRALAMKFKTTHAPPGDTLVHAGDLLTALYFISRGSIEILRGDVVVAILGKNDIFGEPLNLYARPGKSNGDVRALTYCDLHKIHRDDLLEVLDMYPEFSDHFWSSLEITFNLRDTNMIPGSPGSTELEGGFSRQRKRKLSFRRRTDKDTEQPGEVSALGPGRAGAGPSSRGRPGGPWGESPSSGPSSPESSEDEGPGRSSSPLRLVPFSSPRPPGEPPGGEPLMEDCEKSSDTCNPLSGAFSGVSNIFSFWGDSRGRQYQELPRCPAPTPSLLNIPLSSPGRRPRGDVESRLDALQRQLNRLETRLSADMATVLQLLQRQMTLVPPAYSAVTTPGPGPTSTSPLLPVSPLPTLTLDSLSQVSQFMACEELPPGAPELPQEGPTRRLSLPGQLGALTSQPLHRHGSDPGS
row,Structure (SMILES),"hERG current change (%, negative = inhibition) at 10uM"
1,O=c1/c(=C/c2ccccn2)sc2nc3ccccc3n12,-5.66%
2,Cc1ccc(CCNC(=O)c2ccc3nc4ccccc4c(=O)n3c2)cc1,6.08%
3,COc1ccc(CC(=O)Nc2cccc(-c3nnc(-c4ccc(C)cc4)o3)c2)cc1OC,3.54%
4,COC(CNC(=O)c1ccc2c(c1)ncn2-c1cccc(F)c1)OC,9.13%
5,COc1ccc(-c2cn3c(C)c(C(=O)N4CCN(c5ccccc5F)CC4)sc3n2)cc1,-29.8%
6,COc1ccccc1C(=O)OCC(=O)Nc1ccc(Cl)cn1,10.1%
7,CCN(CC)c1ccc(C(=O)OCC(=O)Nc2ccc3[nH]c(=O)[nH]c3c2)cc1,5.58%
8,Cc1ccc(-c2ocnc2C(=O)N2CCOCC2)cc1,21.4%
9,COc1cccc(OC)c1C(=O)N1CCN(Cc2ccccc2C)CC1,-0.823%
10,COC(C(=O)NCc1ccc(C)cc1)c1ccccc1 (stereo not drawn),6.39%
11,Cc1cccc(CCNC(=O)CC2C(=O)NCCN2Cc2ccc(F)c(F)c2)n1 (stereo not drawn),22.3%
12,O=C(Cn1cnc2c(cnn2-c2ccccc2)c1=O)NCc1ccccc1,2.06%
13,CCN(CC)C(=O)c1ccc(COc2ccccc2Cl)cc1,-17.2%
14,Cc1cc(-c2nc3ncccc3o2)ccc1NC(=S)NC(=O)c1ccco1,6.62%
15,CCOCCCNC(=O)C(NC(=O)Cc1c[nH]c2ccccc12)c1ccccc1 (stereo not drawn),-2.36%
16,O=C(COc1cccc(-n2cnnn2)c1)Nc1ccccc1,-26.4%
17,O=C(CCn1nc(-c2ccc(Cl)cc2)ccc1=O)N1CCC2(CC1)OCCO2,-39.8%
18,N#Cc1c(SCC(=O)Nc2ccc(Cl)cc2Cl)sc2c(O)cc(=O)[nH]c12,2.27%
19,Cc1cccc(NC(=O)c2cccnc2Oc2ccccc2)c1C(=O)O,24.5%
20,C[C@@H]1O[C@@H](O[C@H]2C[C@@H](O)[C@]3(CO)[C@@H]4C(CC[C@]3(O)C2)[C@@]2(O)CC[C@H](C3COC(=O)C3)[C@@]2(C)C[C@H]4O)[C@H](O)[C@H](O)[C@H]1O (stereo partly drawn),14.5%
21,O=S1(=O)Nc2c(ccc3cccnc23)-c2ccccc21,9.9%

row,Structure (SMILES),"hERG current change (%, negative = inhibition) at 10uM"
1,CCOP(=O)(OCC)C(NC(=O)NC)C(N)=O (stereo not drawn),20%
2,Cc1nn(CC(=O)Nc2ccc3nc4n(c(=O)c3c2)CCCC4)c(C)c1[N+](=O)[O-],-6.78%
3,COc1cc(NC(=O)COC(C)=O)cc(OC)c1OC,21.9%
4,CCOc1ccc(CNC(=S)N/N=C/c2ccc(OC)c(OC)c2)cc1,-6.58%
5,Cc1ccc(-c2ccc(=O)n(Cc3cccc(Br)c3)n2)cc1,18.3%
6,C=CCN1C(=O)C(Cc2ccc(F)cc2)S/C1=N/N=C/c1cccs1 (stereo not drawn),-9.46%
7,CCOC(=O)c1[nH]cnc1C(=O)Nc1cccc(OC)c1,2.14%
8,Cc1onc(-c2c(F)cccc2Cl)c1C(=O)NCCc1ccncc1,0.179%
9,O=C(NC12CC3CC(CC(C3)C1)C2)c1ccccc1,6.99%
10,CCCN(CCC)Cc1c(C(=O)N/N=C/C(C)=C\c2ccco2)nnn1-c1nonc1N,-11.4%
11,CCN(CC)S(=O)(=O)c1ccc2oc(C(=O)NCCCN3CCOCC3)c(C)c2c1,-11.3%
12,O=C(O)CC(CC(=O)Nc1ccc(-c2ccccc2)cc1)c1ccccc1 (stereo not drawn),9.93%
13,NC(=O)CC(NC(=O)c1cccc(Br)c1)c1ccc(NCC2CC2)c([N+](=O)[O-])c1 (stereo not drawn),-65.4%
14,COc1ccc(-c2nnc(SCC(=O)Nc3sc4c(c3C#N)CCCC4)n2-c2ccccc2)cc1,15.4%
15,O=C(NCCC1=CCCCC1)C(=O)c1c[nH]c2ccccc12,42.2%
16,CC(C)(C)OC(=O)N/N=C/c1c[nH]c2ccccc12,-3.37%
17,CCC(=O)Nc1sc(Cc2ccccc2)c(C)c1C(N)=O,-22.8%
18,O=C(Nc1cccc(-c2cnc3ccccc3n2)c1)c1ccccc1,-0.281%
19,COc1ccc(NC(=O)c2cccc(S(=O)(=O)NCc3ccco3)c2)c(OC)c1,-21.2%
20,CCn1c(=O)c(C(=O)NCc2ccccc2Cl)c(O)c2ccccc21,18.1%
21,COc1ccc(S(=O)(=O)N2CCCC2)cc1C(=O)O,30.4%

# From PMC4336329 (PLoS ONE, 2015)
